From PubChem BioAssay AID651820 (National Center for Advancing Translational Sciences (NCATS), 2012)
Hit rate of the full screen: of about 340,000 compounds, about 12,000 (3.5%) were called active. The inconclusive results got no clear call from the source; some entries with a clear call stand among them for comparison. Calls come from the whole dose curve; as a rule, active = well fitted inhibition curve with a large enough effect; inconclusive = small, poorly fitted or top-dose-only effect, or another doubt; inactive = no such curve, though single readings can be large or run the other way. Potencies of inconclusive entries are left out as doubtful fits.

Test: qHTS Assay for Inhibitors of Hepatitis C Virus (HCV)
Conditions: Huh7.5.1 HCVcc-Cre (HCVcc is cell-culture hepatitis C virus) infection, luciferase reporter, 44 h; activity change, negative = inhibition: at 41.8 µM (top of the series) unless noted
Procedure, shortened: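 1,000 cells/well; 4 h culture; + compound; + HCVcc-Cre (~0.5 moi); 44 h; luciferase substrate, RT 15 min; read 15 sec.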
% is set by controls: 0 for no effect and ±100 for the full control effect; potency is the fitted concentration of half-maximal effect; tags give direction and shape of the fitted curve.

SMILES	Potency	activity change, negative = inhibition
Oc1[nH]c2ccccc2c1N=Nc1nc(Nc2ccccc2)nc(N2CCOCC2)n1	active: 14.1 µM	–
COC(=O)c1cn(C(=O)c2cc(C)cc(C)c2)c2ccccc12	inconclusive [inhibitor, single point]	–
O=C(NCc1ccccc1Cl)C1CCCN(S(=O)(=O)c2cccc3nsnc23)C1 (configuration not stated)	inconclusive [inhibitor, single point]	–
CCn1c(=O)c([N+](=O)[O-])c(N2CCN(Cc3ccc4c(c3)OCO4)CC2)c2ccccc21	active: 11.2 µM	–
Cc1ccc(-c2csc3ncnc(SCC(=O)NCc4ccc5c(c4)OCO5)c23)cc1	inconclusive [inhibitor, partial curve]	–
NS(=O)(=O)c1ccc(NC(=S)N2CCc3ccccc32)cc1	–	inactive: -6.91%
O=C(Nc1ccccc1Br)C1CCC(=O)N1Cc1ccccc1Cl (configuration not stated)	–	inactive: 8.88%
CC(Sc1nnc(C2CC2)n1C1CC1)C(=O)c1ccc(F)cc1 (configuration not stated)	–	inactive: 3.97%
C=CCNC1=C(Cl)C(=O)N(c2cccc(Cl)c2Cl)C1=O	–	inactive: 8.64%
C[C@@H]1NC(=O)[C@H](CCCN=C(N)N)NC(=O)c2cc([N+](=O)[O-])cc(I)c2NCCC[C@@H](C(N)=O)NC1=O	active: 7.94 µM	–
O=Cc1ccc(-n2nncc2-c2ccc([N+](=O)[O-])cc2)cc1	inconclusive [inhibitor, partial curve]	–
CC(=O)Nc1ccc(S(=O)(=O)N(C)c2nc3ccccc3nc2Cl)cc1	inconclusive [inhibitor, partial curve]	–
COc1ccc(OC)c(CCNC(=O)c2ccc(CS(=O)Cc3ccc(Cl)cc3)o2)c1 (configuration not stated)	active: 10 µM	–
COC(=O)C1=C(c2ccc(F)cc2OCc2ccccc2)C[C@@H]2CC[C@H]1N2C(=O)NCc1cccc(C(F)(F)F)c1	inconclusive [inhibitor, partial curve]	–
Cc1cc(C)cc(NC(=O)[C@@H](NC(=O)c2ccco2)C(C)C)c1	–	inactive: -17%
Cc1ccc(NC(=O)CSc2nnc(-c3ccncc3)o2)cc1C	–	inactive: 1.63%
CCOc1ccc(N2CCc3c(C)nc(SC)nc32)cc1	inconclusive [inhibitor, single point]	–
Cc1ccc2c(c1)N(S(=O)(=O)c1cc(-c3onc(C)c3C)ccc1C)CCO2	active: 5.01 µM	–
Cc1cccc(NC(=S)Nc2cccc3ccccc23)c1	inconclusive [inhibitor, single point]	–
COc1ccccc1NS(=O)(=O)c1ccc(C)c(C(=O)NC2=NCCS2)c1	–	inactive: -10.6%
C=CCn1c(C)cc(C(=O)COC(=O)COc2ccccc2C#N)c1C	–	inactive: 17.5%
O=C(CNc1cccc([N+](=O)[O-])c1)N/N=C/c1ccc([N+](=O)[O-])o1	inconclusive [inhibitor, single point]	–
CN(C)C(CNC(=O)c1cc2ccccc2o1)c1ccccc1 (configuration not stated)	inconclusive [inhibitor, single point]	–
O=C(c1ccc2oc(CCc3ccccc3)nc2c1)N1CCC(O)CC1	–	inactive: 8.26%

SMILES	Potency	activity change, negative = inhibition
COc1ccccc1CC(=O)Nc1ccc([N+](=O)[O-])cc1O	inconclusive [inhibitor, single point]	–
COc1ccc(C(=O)O)cc1OC	–	inactive: 6.32%
CCN1C(=O)[C@H]2[C@@H](c3ccc(C)cc3)N3C(=O)N(c4cccc(Cl)c4)C(=O)[C@@]3(CC(C)C)[C@H]2C1=O	–	inactive: -17.1%
c1ccc(Cn2cc(CSc3ccccc3)nn2)cc1	–	inactive: 12.5%
COC(=O)Nc1ccc2ccc3c(NC(=O)OC)ccc4ccc1c2c43	active: 12.6 µM	–
COc1cccc(-c2cc(C(=O)Nc3cc(OC)c(OC)c(OC)c3)no2)c1	inconclusive [inhibitor, full curve]	–
O=C(NCCC1CCCCN1S(=O)(=O)c1ccccc1)C(=O)Nc1ccccc1 (configuration not stated)	inconclusive [inhibitor, single point]	–
CCOC(=O)[C@H]1[C@H]2COc3cc(OC)ccc3[C@@H]2N2C(=O)CN(Cc3ccccc3)C(=O)[C@@]12C	inconclusive [inhibitor, single point]	–
COc1cccc(-c2nc(CS(=O)(=O)CC(=O)NC3CCCCCC3)c(C)o2)c1	inconclusive [inhibitor, single point]	–
Cc1noc(C)c1CSc1cc(C)c2ccccc2n1	inconclusive [inhibitor, single point]	–
Cc1csc(-c2cnn(-c3ccccc3)c2NC(=O)c2ccc(C(F)(F)F)cc2)n1	inconclusive [inhibitor, single point]	–
Cc1ccsc1/C=N/NC(=S)NCc1ccccc1	inconclusive [inhibitor, single point]	–
COCCn1c(C)cc(C2=NNC(=Nc3ccc(Cl)cc3Cl)SC2)c1C	–	inactive: -11.6%
CC(C)CCn1c(SC(C)C(=O)NC2CC2)nc2ccccc2c1=O (configuration not stated)	inconclusive [inhibitor, partial curve]	–
CCN(CC)c1ccc(/C=N/NC(=O)Nc2ccccc2)cc1	inconclusive [inhibitor, single point]	–
O=C(COC(=O)c1cc(=O)[nH]c2ccccc12)Nc1ccc(Cl)cn1	–	inactive: -13.5%
CN(Cc1ccccc1)C(=O)COC(=O)c1cc(-c2ccc(Cl)s2)nc2ccccc12	inconclusive [inhibitor, single point]	–
COc1ccccc1N1CCN(C(=O)c2ccoc2C)CC1	–	inactive: 8.39%
CCCC1(c2ccccc2)NC(=O)N(CC(=O)Nc2cc(S(=O)(=O)N3CCOCC3)ccc2Cl)C1=O (configuration not stated)	–	inactive: -32.4%
CC(C)C(NC(=O)c1ccccc1F)C(=O)NCc1ccccc1 (configuration not stated)	–	inactive: 11.5%
CCOc1cc(-c2conc2N)cc(OCC)c1OCC	inconclusive [inhibitor, single point]	–
CCC(C)C(=O)Nc1ccc(S(=O)(=O)Nc2nccs2)cc1 (configuration not stated)	–	inactive: -17.5%
C=CCNC(=O)c1ccc(-c2ccc([N+](=O)[O-])cc2)o1	–	inactive: -8.58%
O=C(COc1ccc(Br)cc1F)NC1CCN(Cc2ccccc2)CC1	inconclusive [inhibitor, partial curve]	–

SMILES	Potency	activity change, negative = inhibition
CCOC(=O)c1cc2c(=O)n3cccc(C)c3nc2n(Cc2ccco2)c1=NC(=O)c1cccnc1	inconclusive [inhibitor, partial curve]	–
CCOC(=O)c1c(C)[nH]c(C(=O)Cn2nnc(-c3ccccc3Cl)n2)c1C	inconclusive [inhibitor, full curve, poor fit]	–
O=C(Nc1ccccc1F)Nc1cc(Cl)ccc1-n1cncn1	inconclusive [inhibitor, partial curve]	–
Cc1ccc(N2CCN(C(=O)CCc3nc4ccccc4[nH]3)CC2)c(C)c1	inconclusive [inhibitor, single point]	–
COc1ccccc1N1CCN(CC(=O)Nc2ccccc2C(=O)NC(C)c2ccccc2)CC1 (configuration not stated)	inconclusive [inhibitor, partial curve]	–
COc1ccc(C(=O)OCn2nnc3ccccc3c2=O)cc1[N+](=O)[O-]	inconclusive [inhibitor, partial curve, poor fit]	–
O=C1C(Cl)=C(Nc2ccc3cn[nH]c3c2)C(=O)c2ccccc21	active: 3.98 µM	–
O=C(/C=C\Nc1ccc2c(c1)OCO2)c1cccs1	–	inactive: 5.7%
Nc1ccc(Oc2ccc(Cl)cc2)cc1	active: 7.94 µM	–
Cc1nnc(N/N=C/c2ccccc2F)n1N	–	inactive: 12.9%
Cc1cc([N+](=O)[O-])cc(C)c1OCC(=O)N/N=C/c1ccc(OC(=O)c2ccccc2Br)cc1	inconclusive [inhibitor, partial curve, poor fit]	–
COCCCN(C(C)=O)c1nc(-c2ccc(OC)cc2)cs1	inconclusive [inhibitor, partial curve]	–
Cc1ccc(S(=O)(=O)Nc2c(NC3CCCCC3)c3ccccc3oc2=O)c(C)c1	inconclusive [inhibitor, partial curve]	–
O=S(=O)(NCc1csc(-c2cccs2)n1)c1cccc(C(F)(F)F)c1	inconclusive [inhibitor, single point]	–
CCOc1cc(N)c(Cl)cc1C(=O)NCC1CN(Cc2ccc(F)cc2)CCO1 (configuration not stated)	inconclusive [inhibitor, partial curve]	–
O=C(Cc1ccccc1)Nc1cc(C(=O)c2ccccc2)ccc1N1CCOCC1	inconclusive [inhibitor, single point]	–
CCOC(=O)C(NC(=O)c1ccccc1)(OCc1ccc(F)cc1)C(F)(F)F (configuration not stated)	inconclusive [inhibitor, single point]	–
O=C(O)/C(=C\c1cccs1)c1ccc(F)cc1	–	inactive: 7.42%
COc1cccc(-c2nnc(SCC(=O)N3CCCc4ccccc43)o2)c1	inactive	–
CC(=O)c1sc2nc(C)cc(C)c2c1N	inconclusive [inhibitor, single point]	–
COC(=O)c1ccc(CNC(=O)COC(=O)c2ccccc2-c2ccccc2)cc1	inconclusive [inhibitor, single point]	–
CCN1CCN(Cc2ccc(NC(=O)Nc3ccc(SC)cc3)cc2)CC1	inconclusive [inhibitor, single point]	–
CCOC(=O)C1(CCCc2ccccc2)CCN(C(=O)c2cc(C)nn2CC)CC1	inconclusive [inhibitor, partial curve]	–
CCC(C)[C@H](NC(=O)N1CCC(C)CC1)C(=O)O (some centres not stated)	inconclusive [inhibitor, single point]	–
